# Results: PubChem BioAssay AID1508642 (National Center for Advancing Translational Sciences (NCATS), 2021)
# About 200 (0.47%) of roughly 43,000 compounds were called active. This list was built around the results that the source calls inconclusive (neither active nor inactive); the mix of calls is not that of the screen. Calls follow the shape of the dose curve; as a rule, active = well fitted cell-killing curve with a large enough effect; inconclusive = small, poorly fitted or top-dose-only effect, or effect the other way; inactive = flat fitted curve, though single readings scatter. Potencies beside an inconclusive call are fits to weak or partial responses and may not hold up.
# Assay: Cell viability qHTS assay in S16 Pmp22-F2sN cells; also: nearly all actives have a fitted effect of over 65% in size
# Conditions: S16 Pmp22-F2sN Schwann cells (luciferase reporters placed in the Pmp22 gene) viability, CellTiter-Glo, 24 h; series mostly up to 57.5 µM; activity change, negative = cytotoxicity: at the top concentration
# Description: Assay Provider: Jim Inglese Ph.D. National Center for Advancing Translational Science, National Institutes of Health, Rockville, MD CMT is a heterogeneous group of neurological disorders that affect approximately 1 in 2,500 people. In particular, the most common form of CMT, CMT1A is genetically linked to the duplication of the PMP22 gene which leads to Schwann cell overexpression, thus manifesting itself as a typical case of dose-sensitive diseases. To identify small molecule compounds that can mediate the expression of PMP22 we developed a phenotypic assay screening strategy by utilizing genome editing techniques to construct Schwann cell lines containing novel reporter technology to monitor the transcriptional or translational regulation of PMP22. For high sensitivity we use a bioluminescent reporter system embedded in the 3' UTR of the PMP22 gene (S16(c9) Pmp22-F2sN) to identify compounds that inhibit gene expression. […] We can further discriminate the effect of all transcriptionally active molecules on PMP22 translation or stability with an assay that incorporates a short NLuc peptide (HiBiT) at the C-terminus of expressed PMP22 (S16(f8) PMP22-HiBiT) allowing alpha complementation and luminescence detection of membrane-associated PMP22 protein. These assays were screened against the NCATS Sytravon Library Collection. Miniaturization of these assays to 1536-well plate format for quantitative high throughput screening (qHTS) yielded rich data sets immediately from the qHTS assay (S16(c9) Pmp22-F2sN), when compared with data from a cell viability assay (Cell TiterGlo) to identify compounds that decreased the output signals through cellular toxicity to streamline the selection process of actives for subsequent characterization using the HiBiT assay (S16(f8) PMP22-HiBiT).
# Cell viability assay in S16 Pmp22-F2sN cells PROTOCOL TABLE (format as described by Inglese J, Shamu CE and Guy RK. 2007) SEQUENCE No. (e.g., 1, 2, 3, etc.); […] (e.g., Cells, Incubation, Reagent, etc.); VALUE and DESCRIPTION. 1. Cells. Add 500-1,000 cells in 4 uL in growth media (DMEM High Glucose, No Phenol Red media + 10% heat-inactivated FBS + 1% Pen/Strep supplemented media) per well into Greiner 1536-well white/solid bottom high base, TC-treated plates. 2. Compounds. Library compounds and controls added at 23nL per well, transferred by Pin Tool. 3. Incubation. Incubate plates at 37C, 5% CO2, 95% RH for 24 h. 4. Reagent. Add 3uL CellTiter-Glo per well of Greiner 1536-well plates. 5. Incubation. Incubate plates at room temperature for 15 min., protect from light. 6. Detector. FLuc luminescence measured using CCD-based camera (Viewlux). NOTES (numbers refer to Sequence numbers above; values are from representative experiments) 6. Luminescence Read: Clear filter; Exposure = 1 sec, Gain = High, Speed = Slow, Binning = 2X REFERENCES: 1. Inglese J, Shamu CE and Guy RK, Reporting data from high throughput screening of small molecule libraries, Nature Chemical Biology, 2007, 3(8): 438-441. doi.org/10.1038/nchembio0807-438 2. Yasgar A, Shinn P, Jadhav A, Auld DS, Michael S, Zheng W, Austin CP, Inglese J and Simeonov A, Compound Management for Quantitative High-Throughput Screening. J. Assoc. Lab. Auto., 2008, 13: 79-89. doi: 10.1016/j.jala.2007.12.004
# % is scaled to controls: 0 for no effect and ±100 for the full control effect; potency is read from the fitted curve at half-maximal effect; tags tell the direction and shape of the fitted curve.
Compound,Potency,"activity change, negative = cytotoxicity"
Nc1c(C(=O)Nc2ccc(Cl)c(C(F)(F)F)c2)sc2nc3c(cc12)N1CCC3CC1,"inconclusive: 28.2 µM [cytotoxic, single point]",
Cc1cccc(OCC(=O)N2CCN(CCc3ccccn3)CC2)c1,,inactive: 14.9%
Cc1cccc(CN2CC=C(c3noc(CCC(=O)Nc4ccc(C)c(F)c4)n3)CC2)c1,"inconclusive: 39.8 µM [cytotoxic, single point]",
O=C(COc1ccccc1F)N1CCN(Cc2cc(=O)n3nc(-c4ccccc4Cl)sc3n2)CC1,"inconclusive: 39.8 µM [cytotoxic, single point]",
Cc1ccc(Cl)cc1NC(=O)N(Cc1ccc2c(c1)OCO2)C1CCN(Cc2ccccc2)CC1,"inconclusive: 31.6 µM [cytotoxic, single point]",
Cc1cccc(-c2nc(CN3C(=O)CN=C(c4ccccc4)c4ccccc43)c(C)o2)c1,"inconclusive: 35.5 µM [cytotoxic, partial curve, poor fit]",
CCCOc1ccc(C2SCC(=O)Nc3c2c(C)nn3-c2cccc(C)c2)cc1OC (stereo not given),,inactive: -19.3%
O=c1c2ccccc2nc(/C=C/c2cccc3ccccc23)n1-c1ccccc1Cl,"inconclusive: 22.4 µM [cytotoxic, single point]",
COc1ccc(OCC(=O)N2CCN(Cc3cc(=O)n4nc(-c5ccccc5C)sc4n3)CC2)cc1,"inconclusive: 15.8 µM [rising, partial curve]",
N#Cc1cc2c(nc1SCC(=O)Nc1ccc(OC(F)(F)F)cc1)C1CCN2CC1,"inconclusive: 17.8 µM [cytotoxic, single point]",
Cc1cccc(NC(=O)Cn2cc(C(=O)c3ccccc3)c3ccccc32)c1C,"inconclusive: 7.08 µM [cytotoxic, single point]",
COc1ccc(OC)c(NC(=O)Cn2cc(C(=O)c3ccccc3F)c3ccccc32)c1,"inconclusive: 0.02 µM [cytotoxic, full curve, poor fit]",
Cc1ccc(NC(=O)N(Cc2ccc3c(c2)OCO3)C2CCN(Cc3ccccc3)CC2)cc1F,"inconclusive: 39.8 µM [cytotoxic, single point]",
Nc1c(C(=O)Nc2ccc(OC(F)(F)F)cc2)sc2nc3c(cc12)N1CCC3CC1,"inconclusive: 25.1 µM [cytotoxic, single point]",
COc1cc(/C=C/c2nc3ccccc3c(=O)n2-c2ccc(Br)c(C)c2)ccc1O,"inconclusive: 39.8 µM [cytotoxic, single point]",
O=C(c1ccc2c(c1)N(Cc1ccc(F)cc1Cl)C(=O)c1ccccc1S2)N1CCC2(CC1)OCCO2,"inconclusive: 39.8 µM [cytotoxic, partial curve, poor fit]",
COc1ccc(-c2nc(CN3C(=O)CN=C(c4ccccc4)c4ccccc43)c(C)o2)cc1OC,"inconclusive: 25.1 µM [cytotoxic, single point]",
O=C1CN=C(c2ccccc2)c2cc(Cl)ccc2N1Cc1ccc(Cl)cc1,"inconclusive: 35.5 µM [cytotoxic, single point]",
COc1ccc(-c2nc(CN3C(=O)CN=C(c4ccccc4Cl)c4cc(Cl)ccc43)c(C)o2)cc1OC,"inconclusive: 25.1 µM [cytotoxic, single point]",
O=C(Cn1cc(C(=O)c2ccccc2)c2ccccc21)Nc1ccc(Br)cc1,"inconclusive: 39.8 µM [cytotoxic, single point]",
CCc1ccc(-n2nc(C)c3c2NC(=O)CSC3c2ccc(OC)cc2OC)cc1 (stereo not given),"inconclusive: 39.8 µM [cytotoxic, single point]",
COc1ccc(OC)c(CCNCc2c(C(=O)O)c(C)n(Cc3ccc(F)cc3Cl)c2C)c1,"inconclusive: 0.282 µM [rising, full curve, poor fit]",

Compound,Potency,"activity change, negative = cytotoxicity"
Cc1cc(OCC(=O)N2CCN(CCc3ccncc3)CC2)cc(C)c1Cl,"inconclusive: 39.8 µM [rising, partial curve, poor fit]",
Cc1cccc(-n2c(/C=C/c3cccc4ccccc34)nc3ccccc3c2=O)c1,"inconclusive: 11.2 µM [cytotoxic, partial curve, poor fit]",
CC(=O)c1ccc(NC(=O)c2sc3nc4c(cc3c2N)N2CCC4CC2)cc1,,inactive: -4.7%
Cc1cccc(CN2C(=O)CN=C(c3ccccc3Cl)c3cc(Cl)ccc32)c1,"inconclusive: 35.5 µM [cytotoxic, single point]",
O=C(Nc1ccc(OC(F)(F)F)cc1)c1cccn(Cc2ccccc2Cl)c1=O,"inconclusive: 5.01 µM [rising, partial curve, poor fit]",
O=C(COc1ccccc1[N+](=O)[O-])N1CCN(CCc2ccccn2)CC1,,inactive: 3.29%
COc1ccc(NC(=O)c2cccn(Cc3ccc(Cl)cc3)c2=O)c(OC)c1,,inactive: -12.3%
N#Cc1cc2c(nc1SCC(=O)Nc1ccc(Cl)c(C(F)(F)F)c1)C1CCN2CC1,"inconclusive: 39.8 µM [cytotoxic, single point]",
CCc1cccc(NC(=O)CN2C(=O)CN=C(c3ccccc3F)c3cc(Cl)ccc32)c1,"inconclusive: 39.8 µM [cytotoxic, partial curve, poor fit]",
N#Cc1cc2c(nc1SCC(=O)Nc1ccc(C(F)(F)F)cc1)C1CCN2CC1,"inconclusive: 28.2 µM [cytotoxic, single point]",
COc1ccc(-n2c(/C=C\c3ccccc3F)nc3ccccc3c2=O)c(OC)c1,"inconclusive: 31.6 µM [cytotoxic, single point]",
Cc1ccc(NC(=O)N(Cc2ccc3c(c2)OCO3)C2CCN(Cc3ccccc3)CC2)cc1C,"inconclusive: 39.8 µM [cytotoxic, single point]",
CSc1ccc(/C=C/c2nc3ccccc3c(=O)n2-c2cccc(Cl)c2C)cc1,"inconclusive: 39.8 µM [cytotoxic, partial curve, poor fit]",
COc1ccc(-c2nc(CN3C(=O)CN=C(c4ccccc4)c4ccccc43)c(C)o2)cc1,"inconclusive: 15.8 µM [cytotoxic, partial curve]",
CCN(CC)C(=O)c1ccc(NC(=O)CCn2nc(-c3ccc(C)cc3)c3ccccc3c2=O)cc1,"inconclusive: 28.2 µM [cytotoxic, single point]",
CCN(CC)C(=O)c1ccc(NC(=O)CCn2nc(-c3ccc(Cl)cc3)c3ccccc3c2=O)cc1,"inconclusive: 39.8 µM [cytotoxic, single point]",
O=C(CN1C(=O)CN=C(c2ccccc2)c2ccccc21)Nc1cccc(C(F)(F)F)c1,"inconclusive: 39.8 µM [cytotoxic, single point]",
CCCC1=Nc2cc(C(=O)NC3CCC(C)CC3)ccc2Sc2ccccc21 (stereo not given),"inconclusive: 7.94 µM [cytotoxic, full curve]",
CCOC(=O)c1ccc(NC(=O)c2sc3nc4c(cc3c2N)N2CCC4CC2)cc1,,inactive: 1.38%
COc1ccc(OC)c(NC(=O)Cn2cc(C(=O)c3ccccc3)c3ccccc32)c1,,inactive: -19%
COc1ccc(C)cc1NC(=O)c1cccn(Cc2cccc([N+](=O)[O-])c2)c1=O,"inconclusive: 39.8 µM [rising, single point]",
COc1cccc(/C=C/c2nc3ccccc3c(=O)n2-c2ccc(Cl)cc2)c1OC,"inconclusive: 31.6 µM [cytotoxic, partial curve, poor fit]",

Compound,Potency,"activity change, negative = cytotoxicity"
Cc1ccc(NC(=O)N(Cc2ccc3c(c2)OCO3)C2CCN(Cc3ccccc3)CC2)cc1Cl,"inconclusive: 39.8 µM [cytotoxic, single point]",
Cc1ccccc1-n1c(/C=C/c2ccc(O)cc2)nc2ccccc2c1=O,"inconclusive: 39.8 µM [cytotoxic, single point]",
N#Cc1cccc(NC(=O)CSc2nc3c(cc2C#N)N2CCC3CC2)c1,"inconclusive: 22.4 µM [cytotoxic, partial curve, poor fit]",
Cc1ccc(-n2nc(C)c3c2NC(=O)CSC3c2ccc(O)cc2)cc1Cl (stereo not given),"inconclusive: 0.708 µM [cytotoxic, full curve, poor fit]",
COc1ccc(NC(=O)CCc2nc(C3=CCN(Cc4cccc(Cl)c4)CC3)no2)cc1OC,,inactive: -20.6%
Cc1oc(-c2ccccc2Cl)nc1CN1C(=O)CN=C(c2ccccc2)c2cc(Cl)ccc21,"inconclusive: 39.8 µM [cytotoxic, partial curve, poor fit]",
COC(=O)c1ccccc1NC(=O)c1cccn(Cc2cccc(Cl)c2)c1=O,"inconclusive: 39.8 µM [cytotoxic, single point]",
CCOc1ccc2nc(NC(=O)c3cccn(Cc4ccc(C)cc4)c3=O)sc2c1,,inactive: 11.1%
CCc1ccc(-n2nc(C)c3c2NC(=O)CSC3c2ccccc2C)cc1 (stereo not given),"inconclusive: 28.2 µM [cytotoxic, partial curve, poor fit]",
CC(=O)c1cccc(NC(=O)c2cccn(Cc3cccc(C)c3)c2=O)c1,,inactive: -5.19%
Cc1ccc(NC(=O)CN2C(=O)CN=C(c3ccccc3)c3ccccc32)cc1Cl,"inconclusive: 39.8 µM [cytotoxic, single point]",
Cc1ccccc1-c1nn2c(=O)cc(CN3CCN(C(=O)COc4ccccc4Cl)CC3)nc2s1,"inconclusive: 12.6 µM [cytotoxic, partial curve, poor fit]",
Cc1ccc(-n2c(/C=C\c3ccc(F)c(F)c3)nc3ccccc3c2=O)c(C)c1,"inconclusive: 22.4 µM [cytotoxic, single point]",
Cc1ccc(-c2nn3c(=O)cc(CN4CCN(C(=O)COc5ccc(C)c(C)c5)CC4)nc3s2)cc1,"inconclusive: 15.8 µM [rising, partial curve, poor fit]",
CN(C)c1ccc(NC(=O)c2sc3nc4c(cc3c2N)N2CCC4CC2)cc1,,inactive: 10.5%
Cc1ccccc1-n1c(/C=C/c2c(C)[nH]c3ccccc23)nc2ccccc2c1=O,"inconclusive: 12.6 µM [cytotoxic, partial curve]",
Cc1cccc(-c2nn3c(=O)cc(CN4CCN(C(=O)COc5ccc(Cl)cc5)CC4)nc3s2)c1,"inconclusive: 1 µM [cytotoxic, partial curve, poor fit]",
CCOc1ccc(CN(CCc2ccc3c(c2)OCO3)Cc2ccc(C)cc2)cc1,,inactive: -1.76%
Cc1cccc(CN2C(=O)CN=C(c3ccccc3)c3ccccc32)c1,"inconclusive: 39.8 µM [cytotoxic, single point]",
COc1cccc(-c2nn3c(=O)cc(CN4CCN(C(=O)COc5ccccc5C)CC4)nc3s2)c1,"inconclusive: 3.55 µM [cytotoxic, single point]",
COc1ccc(OCC(=O)N2CCN(Cc3cc(=O)n4nc(-c5ccc(OC)cc5)sc4n3)CC2)cc1,"inconclusive: 11.2 µM [cytotoxic, partial curve, poor fit]",
